Assays:
[1] = biological target: T1, W369-hPro1.ECD.His, IL-2Rγ ECD (human, UniProt P31785 23-254); assay: SPR Biacore 8K; variant pre-mixed 1:1 with IL-2Rβ ECD-His, injected over captured IL-2Rγ ECD-His; steady state
T1 construct: Entry includes linker and C-terminal 6xHis tag; also called IL-2Rγc; CD132
T1 sequence: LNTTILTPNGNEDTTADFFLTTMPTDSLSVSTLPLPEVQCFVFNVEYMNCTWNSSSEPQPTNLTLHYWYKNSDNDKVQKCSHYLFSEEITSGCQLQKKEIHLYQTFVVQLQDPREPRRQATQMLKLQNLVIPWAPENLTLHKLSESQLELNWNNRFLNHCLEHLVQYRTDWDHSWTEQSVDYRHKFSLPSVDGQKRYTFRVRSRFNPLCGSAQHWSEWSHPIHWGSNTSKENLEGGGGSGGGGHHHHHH
Method: (§1) IL-2 variants binding affinity to IL-2 receptor were detected by SPR using Biacore 8K. For IL-2Rα binding assay, each variant was captured on anti-human Fc immobilized CM5 sensor chip (cytiva). W3XX115-hPro1.ECD.His at different concentrations were injected over the sensor chip at a flow rate of 30 uL/min for an association phase of 60 s, followed by 90 s dissociation. The chip was then regenerated by 10 mM Glycine-HCl pH1.5 after each binding cycle. For IL-2Rγ binding assay, IL-2 variants were mixed with W369-hPro2.ECD.His as 1:1 before assay, were detected by SPR using Biacore 8K. W3XX115-hPro1.ECD.His was captured on anti-His immobilized CM5 sensor chip (cytiva). The mixture were injected over the sensor chip as described above. The sensorgrams of blank surface and buffer channel were subtracted from the test sensorgrams. The experimental data was fitted by steady state affinity model. Molecular weight of W3XX115-hPro1.ECD.His or W369-hPro1.ECD.His was used to calculate the molar concentration of analyte.

[2] = biological target: T2, Human IL-2Rβ/γ (intermediate affinity IL-2 receptor) (human, UniProt P14784 27-551; P31785 23-369); assay: FACS, HH cells; EC50 fold vs T2U0.E44-1
T2 construct: whole, on cells; also called IL-2Rβ/γc; IL-2Rβ (CD122) and γ (CD132)
T2 sequence (looked up) 1: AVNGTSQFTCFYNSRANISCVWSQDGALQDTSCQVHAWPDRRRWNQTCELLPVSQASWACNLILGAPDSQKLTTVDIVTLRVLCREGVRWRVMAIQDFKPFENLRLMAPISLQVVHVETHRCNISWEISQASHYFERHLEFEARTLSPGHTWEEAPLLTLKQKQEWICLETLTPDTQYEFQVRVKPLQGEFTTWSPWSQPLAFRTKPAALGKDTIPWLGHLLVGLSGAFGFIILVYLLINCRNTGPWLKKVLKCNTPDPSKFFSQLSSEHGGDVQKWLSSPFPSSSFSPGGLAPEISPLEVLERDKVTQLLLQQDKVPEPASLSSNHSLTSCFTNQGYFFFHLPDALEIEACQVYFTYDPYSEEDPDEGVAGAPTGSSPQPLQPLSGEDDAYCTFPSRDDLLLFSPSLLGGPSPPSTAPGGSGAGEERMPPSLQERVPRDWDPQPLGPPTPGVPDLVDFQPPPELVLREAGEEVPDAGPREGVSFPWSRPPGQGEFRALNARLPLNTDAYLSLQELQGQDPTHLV
T2 sequence (looked up) 2: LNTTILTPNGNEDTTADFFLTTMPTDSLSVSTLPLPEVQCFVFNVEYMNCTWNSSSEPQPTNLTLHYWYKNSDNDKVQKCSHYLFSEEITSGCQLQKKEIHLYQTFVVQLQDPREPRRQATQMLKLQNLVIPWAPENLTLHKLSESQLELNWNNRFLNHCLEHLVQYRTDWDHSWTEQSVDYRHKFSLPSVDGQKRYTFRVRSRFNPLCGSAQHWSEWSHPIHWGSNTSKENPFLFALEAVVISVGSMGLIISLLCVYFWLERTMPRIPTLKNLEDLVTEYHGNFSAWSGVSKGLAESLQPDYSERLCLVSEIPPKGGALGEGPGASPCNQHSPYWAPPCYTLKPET
Method: (§2) Human cutaneous T cell lymphoma HH cells, malignant non-Hodgkin's lymphoma NK92 cells and cutaneous T cell lymphoma MJ20 cells were used for binding assay. They both constitutively express IL-2Rβ (CD122) and […] (CD132), and NK92 and MJ20 also expresses IL-2Rα (CD25). HH, NK92 and MJ20 cells were cultured following ATCC guidance, then transferred to a 96-plate for binding analysis. Cells were incubated with IL-2/Fc fusion proteins at the indicated concentrations for 30 min at 4° C. to avoid internalization. Binding was detected by 2nd antibody of PE-anti-human Fc at 4° C. for another 30 min. The median fluorescence intensity (MFI) on HH and NK92 cells was measured using FACS.

[3] = biological target: T3, W3XX115-hPro1.ECD.His, IL2Rα ECD (Homo sapiens (Human), UniProt P01589 22-213); assay: SPR Biacore 8K; variant captured via anti-human Fc, IL-2Rα ECD-His injected; steady state
T3 construct: Entry includes the C-terminal 6xHis tag; also called CD25
T3 sequence: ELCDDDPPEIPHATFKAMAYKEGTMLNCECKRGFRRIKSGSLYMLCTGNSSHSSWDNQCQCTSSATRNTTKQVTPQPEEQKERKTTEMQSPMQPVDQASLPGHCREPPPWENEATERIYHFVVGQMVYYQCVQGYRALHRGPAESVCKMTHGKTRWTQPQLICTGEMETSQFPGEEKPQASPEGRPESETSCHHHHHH
Method: as §1
For T3U0.E44-1 and T2U0.E44-33, no binding to IL-2Rα was detected.

[4] = biological target: T2, Human IL-2Rβ/γ (intermediate affinity …); assay: FACS, HH cells
Method: as §2

[5] = biological target: T4, Human IL-2Rα/β/γ complex (high affinity IL-2 receptor) (human, UniProt P01589 22-272; P14784 27-551; P31785 23-369); assay: FACS, MJ20 cells
T4 construct: whole, on cells
T4 sequence (looked up) 1: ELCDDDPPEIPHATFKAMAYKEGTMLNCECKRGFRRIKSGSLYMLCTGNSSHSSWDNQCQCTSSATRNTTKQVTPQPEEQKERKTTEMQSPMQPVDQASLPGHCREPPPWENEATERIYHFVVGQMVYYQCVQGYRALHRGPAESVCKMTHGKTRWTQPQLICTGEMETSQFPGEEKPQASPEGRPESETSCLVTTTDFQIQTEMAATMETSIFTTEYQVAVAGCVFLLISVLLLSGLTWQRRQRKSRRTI
T4 sequence (looked up) 2: T2 sequence (looked up) 1
T4 sequence (looked up) 3: T2 sequence (looked up) 2
Method: as §2
IL-2 variants of T2U0.E44-6 and T2U0.E44-26 were used to construct bivalent variants W3XX115-T2.Z20-1.uIgG4V322 and W3XX115-T2.Z20-2.uIgG4V322 respectively.

B1: W3XX115-T2U0.E44-1.uIgG4V322 (Fc fusion)
chain: [no letters for about 150 residues]ESKYGPPCPPCPAPEAAGGPSVFLFPPKPKDTLMISRTPEVTCVVVDVSQEDPEVQFNWYVDGVEVHNAKTKPREEQFNSTYRVVSVLTVLHQDWLNGKEYKCKVSNKGLPSSIEKTISKAKGQPREPQVYTLPPCQEEMTKNQVSLWCLVKGFYPSDIAVEWESNGQPENNYKTTPPVLDSDGSFFLYSRLTVDKSRWQEGNVFSCSVMHEALHNHYTQKSLSLSLG
heavy: EIQLQQSGPELVKPGASVKVSCKASGYSFTDYNMYWVKQSHGESLEWIGYIDPYNGGTRYNQKFKGKATLTVDKSSSTAFMHLNSLTSEDSAVYYCARNGHWDGAWFAYWGQGTLVTVSAASTKGPSVFPLAPCSRSTSESTAALGCLVKDYFPEPVTVSWNSGALTSGVHTFPAVLQSSGLYSLSSVVTVPSSSLGTKTYTCNVDHKPSNTKVDKRVESKYGPPCPPCPAPEAAGGPSVFLFPPKPKDTLMISRTPEVTCVVVDVSQEDPEVQFNWYVDGVEVHNAKTKPREEQFNSTYRVVSVLTVLHQDWLNGKEYKCKVSNKGLPSSIEKTISKAKGQPREPQVCTLPPSQEEMTKNQVSLSCAVKGFYPSDIAVEWESNGQPENNYKTTPPVLDSDGSFFLVSRLTVDKSRWQEGNVFSCSVMHEALHNHYTQKSLSLSLG
light: DIQMNQSPSSLSASLGDTITITCHASQNINVWLSWYQQKPGNIPKLLIYKASNLHTGVPSRFSGSRSGTGFTLTISSLQPEDIATYYCHQGQSYPFTFGSGTKLEIKRTVAAPSVFIFPPSDEQLKSGTASVVCLLNNFYPREAKVQWKVDNALQSGNSQESVTEQDSKDSTYSLSSTLTLSKADYEKHKVYACEVTHQGLSSPVTKSFNRGEC
notes: WT IL-2, no linker, IgG4 Fc with FALA, one Fab arm (E44 format); also called T20.E44-1; wild-type IL-2
Kd [1]: 1790 nM | Affinity reduction [2]: 1 fold | Kd [3]: 110 nM | EC50 [4]: 52.6 nM | EC50 [5]: 8.31 nM
